Test results reported in the BET-seq Pho4 binding data (Le et al. 2018).
The list shows a part of the results. These are noisy estimates, calculated here from bound and input reads.

Biological target: T1, Pho4 (S. cerevisiae) (UniProt P07270)
T1 sequence: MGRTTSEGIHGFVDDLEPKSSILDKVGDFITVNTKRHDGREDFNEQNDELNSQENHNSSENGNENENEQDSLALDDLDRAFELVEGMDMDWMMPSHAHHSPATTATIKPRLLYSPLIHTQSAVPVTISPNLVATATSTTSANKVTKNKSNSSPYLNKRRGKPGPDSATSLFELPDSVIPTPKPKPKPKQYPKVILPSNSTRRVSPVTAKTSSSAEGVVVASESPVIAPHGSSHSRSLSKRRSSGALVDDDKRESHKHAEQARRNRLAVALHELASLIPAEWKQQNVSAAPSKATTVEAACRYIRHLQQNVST
Assay: relative binding free energy (BET-seq); higher = weaker binding
Conditions: reference: library average

Sequence	relative binding free energy [kcal/mol]
TGTATCACGTGTGGGG	0.26
GTTCTCACGTGGATTT	0.32
AGGAGCACGTGTAAGG	0.08
GAAGGCACGTGGGTTG	-0.25
CCTTGCACGTGTTAGG	0.14
TAAGGCACGTGCAGGG	-0.12
TGTTTCACGTGAGTTG	0.35
AATAGCACGTGTCTGG	-0.11
AAAAGCACGTGGGTAA	-0.14
TCGGGCACGTGGATTA	-0.03
TTTCGCACGTGGTGCT	-0.2
TTCTTCACGTGACGGG	0.34
AGATTCACGTGCTTGT	0.24
AGGTTCACGTGGTTAA	0.19
TTTGCCACGTGGTAGA	-0.24
GAGTGCACGTGTAGCG	0.02
AAGGTCACGTGGGCTG	-0.03
GTTGGCACGTGCCGGG	-0.15
GGAATCACGTGGGGAG	0.07
TTCTACACGTGTTAAT	0.2
GGTAGCACGTGTTATA	-0.03
GGTGGCACGTGTCAGC	0.01
TTGTTCACGTGTACGT	0.35

Sequence	relative binding free energy [kcal/mol]
TGGTCCACGTGTGCTA	0.07
TCAAGCACGTGTGTAA	0.1
TGTAGCACGTGTGGAA	0
TTATTCACGTGGTCTG	0.09
TTTAACACGTGTACGT	0.01
ATGACCACGTGTTTTG	0.04
TGGAGCACGTGAAATT	0.42
TGACGCACGTGGGCTG	-0.12
TTGTGCACGTGCGGAA	-0.03
TAAAGCACGTGGTTGT	-0.1
GGGACCACGTGTGTGG	0.08
GTAATCACGTGGCAGT	0.1
TGACGCACGTGTTGAA	0
GCGGGCACGTGGTCGG	-0.22
TACAGCACGTGGTAGG	-0.19
TGCGACACGTGAAGTG	0.36
TGATGCACGTGGTGTA	-0.09
GATAGCACGTGGGTGA	-0.19
TGGCGCACGTGACTTG	0.21
GGACTCACGTGGTGCG	0.17
ATGTACACGTGGGTAT	-0.11
TCTGGCACGTGGTGGT	-0.15
TTAGCCACGTGTGCTT	0.01

Sequence	relative binding free energy [kcal/mol]
CTTGCCACGTGAGGGT	0
TGAAGCACGTGGTGTA	-0.11
CCGTGCACGTGAGGGG	0.17
CTTAGCACGTGTGGAG	0.07
TGATACACGTGCGGAT	0.08
GGAAGCACGTGCGGTG	-0.23
TGGAGCACGTGATGTT	0.1
GTTAGCACGTGTGCTG	-0.04
ATATACACGTGTATTA	0.02
TGCGGCACGTGAGTGT	0.02
TGGAGCACGTGGTAAG	-0.18
TGAAGCACGTGGGGTT	-0.23
CAGGTCACGTGGGGTA	-0.1
TTTAACACGTGAGGTG	0.35
AATGGCACGTGTCGTT	-0.09
GGTGTCACGTGTGATT	0.23
TTGATCACGTGAAGTG	0.37
AGGATCACGTGACTTG	0.32
TGCGACACGTGGTGCG	-0.11
GGGAACACGTGTAATG	0.15
GGAGACACGTGTTGGA	-0.03
TATAACACGTGTAGGC	0.05
TGGGGCACGTGGGAAC	-0.07

Sequence	relative binding free energy [kcal/mol]
AATGACACGTGGGGAT	-0.24
CTATCCACGTGTGGGG	0.01
TCGGTCACGTGATGGA	0.23
TTAGTCACGTGTGGAC	0.18
AGTTGCACGTGGGCGT	-0.08
TCAGGCACGTGTTGTA	-0.16
TTTATCACGTGTCTGT	0
GATGTCACGTGAGGAT	0.28
TGAGCCACGTGTCGGG	0.03
GGTATCACGTGAAGGG	0.4
GGTTCCACGTGATAGT	0.14
TGATGCACGTGGAAAG	0.18
TGGCACACGTGTGAGA	0.16
CACGACACGTGTGGGG	0.11
ATATTCACGTGAAATG	0.26
TGGAACACGTGGACGT	0.17
TGGGGCACGTGCATGA	-0.27
GAGGTCACGTGGAATA	0.26
ATGCTCACGTGGAGTG	0.15
GTTTGCACGTGAAGGA	0.28
AGGTACACGTGTAACG	0.23
ATGGTCACGTGATATG	0.3
TAATTCACGTGAGGGA	0.33

Sequence	relative binding free energy [kcal/mol]
TTATACACGTGGACGT	0.13
AAGATCACGTGGTTGT	0.21
GTTCTCACGTGATTTG	0.29
ACGGGCACGTGGATAG	-0.16
GATAACACGTGTGGAT	0.11
ATGATCACGTGTAGTA	0.13
TGTTGCACGTGTGGGC	0.09
ACGGGCACGTGTAGTG	-0.01
GGAGGCACGTGTCATG	-0.16
CAGAGCACGTGTTATG	0.06
GGGGACACGTGTTCGA	0.14
CGTCACACGTGTGTGT	-0.1
GGTGTCACGTGTCTCA	0.31
AGGATCACGTGATGAG	0.32
ATTCTCACGTGGGTGT	0.14
AGTTTCACGTGTGGCT	0.34
AAACGCACGTGGTGGT	-0.14
TAGTGCACGTGCGTGT	-0.03
TGTAACACGTGGATGG	-0.03
ATGAACACGTGTGAGT	0.12
AAGTTCACGTGATTAT	0.37
TGTTGCACGTGGGTTA	-0.17
GTTGTCACGTGCGGCA	0.07
